Assay results from PubChem BioAssay AID686979 (National Center for Advancing Translational Sciences (NCATS), 2013).
Out of some 420,000 compounds screened, about 50,000 (12%) were called active. Inconclusive means that the source gave no clear call. Such entries were picked first, then a sample of the others. Calls come from the whole dose curve; as a rule, active = well fitted inhibition curve with a large enough effect; inconclusive = small, poorly fitted or top-dose-only effect; inactive = flat fitted curve, though single readings scatter. Potencies of inconclusive entries are left out as doubtful fits.

Assay: qHTS for Inhibitors of human tyrosyl-DNA phosphodiesterase 1 (TDP1): qHTS in cells in presence of CPT; note: nearly all actives have a fitted effect of over 55% in size
Details: chicken DT40 Tdp1-/-;hTDP1 cells + 20 nM CPT, ATP luminescence, 48 h; activity change, negative = growth inhibition: at 46.2 µM (top of the series) unless noted
Outline: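 Cell growth measured by CellTiter-Glo luminescence after a minimum 48 h, 37 C compound exposure with 20 nM CPT in Tdp1-knockout DT40 cells stably expressing hTDP1, seeded 400/well; qHTS titration format.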
% is set by controls: 0 for no effect and ±100 for the full control effect; potency is the fitted concentration of half-maximal effect; tags give direction and shape of the fitted curve.

SMILES | Potency | activity change, negative = growth inhibition
C=CCN(CC=C)c1ccc(/C=C/c2ccnc3ccccc23)cc1 | active: 17.8 µM | 
NC(Cc1ccc(C(F)(F)F)cc1)c1csc(Nc2ccc(C(=O)NCc3ccco3)cn2)n1 (stereo not drawn) | active: 14.6 µM | 
CN(C)c1ncc2nc(-c3ccc(F)cc3)c(=O)n(CCC#N)c2n1 | inactive | 
CCn1c(=O)c2cc(C(=O)NCCN(C)C)sc2c2ccccc21 | inconclusive [inhibitor, single point] | 
CC1=CC2=NC(=O)CC(C)(C(=O)N(CC(=O)NC3CCCC3)Cc3ccccc3)N2C=C1 (stereo not drawn) | inactive | 
Cc1ccc(NC(=O)CC(c2ccc(F)cc2)N2Cc3ccccc3C2=O)cc1C (stereo not drawn) | inactive | 
CC1Sc2ccc(S(=O)(=O)CCC(=O)NCc3ccccc3Cl)cc2NC1=O (stereo not drawn) | inconclusive [inhibitor, single point] | 
Cc1c(C(=O)NCc2ccc(Cl)cc2)sc2nc3n(c(=O)c12)CCC3 | inconclusive [inhibitor, single point] | 
COc1ccc(Nc2nc(N)nc(CSc3n[nH]c(-c4ccccc4)n3)n2)cc1 | inconclusive [inhibitor, single point] | 
COc1ccc(-n2c(=O)c(-c3ccc(F)cc3)nc3cnc(N4CCOCC4)nc32)cc1 | inactive | 
Cc1nnc(Oc2ccc([N+](=O)[O-])cc2)c2ccccc12 | inconclusive [inhibitor, single point] | 
CC(=O)N(CC(O)CO)c1c(I)c(C(=O)NCCO)c(I)c(C(=O)NCC(O)CO)c1I (stereo not drawn) | inactive | 
Cc1c(C(=O)O)oc2c1-c1nn(Cc3ccccc3Cl)cc1CC2 | inactive | 
CCCc1cc(C(=O)N2CCCC(CO)(CCCc3ccccc3)C2)n(C)n1 (stereo not drawn) | inconclusive [inhibitor, single point] | 
Cc1cccc(N/C=C/C(=C(C#N)C#N)N(C)C)c1 | inconclusive [inhibitor, single point] | 
CC(C)c1ccc(NC(=O)Nc2cc3sccc3n2C)cc1 | inconclusive [inhibitor, single point] | 
Cc1ccc2nc(NCC(N)=O)nc(-c3ccccc3)c2c1 | inactive | 
Cn1c(=O)c2c(nc(SCCCO)n2Cc2ccccc2Cl)n(C)c1=O | inactive | 
O=C(NC(=O)N1CCN(c2ccc([N+](=O)[O-])cn2)CC1)c1ccccc1F | inconclusive [inhibitor, single point] | 
CN(CC(=O)NC(=O)Nc1ccccc1F)Cc1ccccc1 | inactive | 
CO/C=C\C=C/c1nnn(-c2ccc(Cl)cc2)n1 | inconclusive [inhibitor, single point] | 
CCc1ccccc1NC(=O)c1ccc(F)c(S(=O)(=O)N2CCN(c3ccccc3OC)CC2)c1 | active: 14.6 µM | 
Cc1nc(NC(=O)CSc2cc(C)c3ccccc3n2)c(Cl)cc1Cl | inconclusive [inhibitor, single point] | 
COc1ccc(/C=C/c2onc(C)c2S(=O)(=O)N2CCC(C(=O)N3CCCCCC3)CC2)cc1 | inconclusive [inhibitor, single point] | 
Cc1ccccc1-n1ncc2c1CC(C)(C)CC2NC(=O)CCC1=NNC(=O)CC1 (stereo not drawn) | inactive | 

SMILES | Potency | activity change, negative = growth inhibition
COc1ccc(NC(=O)N(C)C[C@H]2OCc3cnnn3CCCC(=O)N([C@@H](C)CO)C[C@H]2C)cc1 | inactive | 
CCCC[C@H]1COCCS(=O)(=O)N1Cc1cccc(F)c1 | inconclusive [inhibitor, single point] | 
Cc1ccc(OCCOCCN(C)C)c(Cl)c1 | inactive | 
COc1ccc2c(Sc3ccc(C)cc3)c(C(=O)NC(C)c3ccccc3)[nH]c2c1 (stereo not drawn) | inconclusive [inhibitor, single point] | 
O=C(O)c1cccc(NC(=S)N/N=C/c2ccccc2OCc2ccc(Br)cc2)c1 | inconclusive [inhibitor, partial curve] | 
COc1ccc(-c2csc(NC(=S)NC(=O)/C=C/c3ccco3)n2)cc1Br | active: 1.84 µM | 
CCOc1ccc(S(=O)(=O)Nc2ccc(C(=O)N3CCCC3)cc2)cc1 | inactive | 
N#C/C(=C/c1ccc(N2CCOCC2)o1)C(=O)NC1CCCCC1 |  | inconclusive: -33.2% [inhibitor]
CCc1nnc(N/N=C/c2ccc(-c3ccc([N+](=O)[O-])cc3)o2)n1N | inactive | 
COc1ccc(-c2noc(CSc3nc(-c4ccccc4)cc(=O)[nH]3)n2)cc1OC | inactive | 
O=C(C[n+]1ccncc1)c1cccc([N+](=O)[O-])c1 | inconclusive [inhibitor, single point] | 
O=C(NCc1ccco1)c1sc2ccccc2c1Cl | inconclusive [inhibitor, single point] | 
N/C(=N/OC(=O)c1ccc(Cl)cc1)c1ncc([N+](=O)[O-])s1 | active: 16.4 µM | 
COc1ccc(S(=O)(=O)N2CCN(C(=O)Cc3ccsc3)CC2)cc1 | inactive | 
CCc1ccc(C(=O)c2cn(CC(=O)NCc3ccc(C)cc3)c3nc(C)ccc3c2=O)cc1 | inactive | 
O=C(NCc1ccccc1)c1cc2ccc(O)cc2oc1=O | inconclusive [inhibitor, single point] | 
Cc1ccc(N2C(=O)C(CC(=O)Nc3ccc(F)cc3)N(Cc3ccc4c(c3)OCO4)C2=O)cc1 (stereo not drawn) | inconclusive [inhibitor, partial curve] | 
Cc1ccc(CNC(=O)c2ccc3c(c2)NC(=O)C(CS(=O)(=O)Cc2cccc(F)c2)N3)cc1 (stereo not drawn) | inactive | 
CN(C)c1ccc(C(CNC(=O)c2ccccc2Br)c2c[nH]c3ccccc23)cc1 (stereo not drawn) | inactive | 
COc1cc(C(=O)Oc2ccc(/C=N/NC(=O)c3ccncc3)cc2)cc(OC)c1OC | inactive | 
COc1ccc(CC(C)Nc2cccc(SC)c2)cc1 (stereo not drawn) | inactive | 
O=C(Nc1nc2c(F)cccc2s1)c1ccc2c(c1)OCCO2 | inconclusive [inhibitor, single point] | 
Cc1ccc(CNC(=O)Cn2c(-c3cccs3)cc3cc(Cl)ccc32)cc1 | inconclusive [inhibitor, single point] | 
Cc1ccc2cccc(S(=O)(=O)N3CCN(c4cccc(Cl)c4)CC3)c2n1 | inconclusive [inhibitor, single point] | 
CCC(Sc1nc(N)c(NC(=O)c2ccc(Br)o2)c(=O)[nH]1)C(=O)O (stereo not drawn) | inactive | 

SMILES | Potency | activity change, negative = growth inhibition
CCc1nn(CC(=O)NCCCc2ccccc2)c(=O)c2cc3cc(F)ccc3n12 | inactive | 
COc1cc(CN2CCC(Cc3ccccc3)CC2)c([N+](=O)[O-])cc1OC | active: 20.6 µM | 
COc1ccc(C)cc1NC(=O)CSc1nnc(-c2ccc(C)cc2)o1 | inconclusive [inhibitor, partial curve] | 
CN1CCN(c2ncc3nc(-c4cn(C)c5ccccc45)c(=O)n(CCC#N)c3n2)CC1 | inconclusive [inhibitor, single point] | 
O=C(N/N=C/c1ccc(N2CCOCC2)cc1)c1ccc(O)cc1 | inconclusive [inhibitor, single point] | 
O=C(COC(=O)Cc1cccs1)Nc1ccccc1 | inconclusive [inhibitor, single point] | 
COc1ccc(CC(=O)NCCCc2ccccc2)cc1OC |  | inconclusive: -35.9% [inhibitor]
COc1ccc(C2C3=C(CC(C)(C)CC3=O)Nc3c2c(=O)[nH]c2nc(C)nn32)cc1 (stereo not drawn) | inactive | 
O=S(=O)(c1ccc(Cl)cc1)N1CCCC(C(F)(F)F)C1 (stereo not drawn) | inactive | 
COC(=O)c1c(C(=O)OC)c2cc(C)ccn2c1Cl | inconclusive [inhibitor, single point] | 
COc1ccc(N(C)S(=O)(=O)c2cccc(C(=O)NC3CCCCC3C)c2)cc1 (stereo not drawn) | inconclusive [inhibitor, single point] | 
O=C(N/N=C/c1ccc(-c2cccc(C(F)(F)F)c2)o1)c1cccc(F)c1 | active: 17.8 µM | 
CNS(=O)(=O)c1cccc(C(=O)OCC(=O)c2cc3ccccc3o2)c1 | inconclusive [inhibitor, single point] | 
CN(C)c1ccc(C=c2c3ccccc3n3c2c2c([n+]3C)CCCC2)cc1 | active: 0.411 µM | 
CCOc1ccc(CN(C)C(=O)c2ccc(S(=O)(=O)N(C)c3ccccc3OC)cc2)cc1 | inconclusive [inhibitor, single point] | 
COc1cc(COCC(O)CN2CCN(CCN3C(=O)c4cccc5cccc(c45)C3=O)CC2)cc(OC)c1OC (stereo not drawn) | active: 18.4 µM | 
N#Cc1ccc(CN2CCN(C(=O)c3cc(C4CC4)nn3-c3ccccc3)CC2)cc1 | active: 23.1 µM | 
O=S(=O)(c1ccc(Cl)cc1)c1nc(-c2ccccc2F)oc1NCc1ccccc1 | inconclusive [inhibitor, single point] | 
OCCN(CCCn1c(C(F)(F)F)nc2ccccc21)c1nc(CN2CCCCC2)cs1 | inconclusive [inhibitor, single point] | 
CC1CCN(S(=O)(=O)c2ccc(NC(=O)C3CC3)cc2)CC1 | inconclusive [inhibitor, single point] | 
Cc1ccc(-c2cnc3n2CCCCC3)cc1 | inconclusive [inhibitor, partial curve, poor fit] | 
COc1ccc(NC(=O)C2=CC(c3ccc4c(c3)OCO4)=NS(=O)(=O)N2C)cc1OC | inconclusive [inhibitor, single point] | 
COC(=O)[C@@]12C[C@@H](CC(=O)NCc3cccc4ccccc34)C(=O)N(Cc3cccc4ccccc34)C1=CCC(C)(C)C2 | active: 18.4 µM | 
